# Hit rate of the full screen: of about 310,000 compounds, about 2,200 (0.71%) showed an effect of 50% or more. Effects have a minus sign here. The list shows a part of the results.
# Target: human ether-à-go-go-related gene (hERG) potassium channel (human, UniProt Q12809)
# Assay: primary screen, population patch clamp on CHO cells stably expressing hERG
# Chain of human ether-à-go-go-related gene (hERG) potassium channel (Q12809 whole entry, looked up): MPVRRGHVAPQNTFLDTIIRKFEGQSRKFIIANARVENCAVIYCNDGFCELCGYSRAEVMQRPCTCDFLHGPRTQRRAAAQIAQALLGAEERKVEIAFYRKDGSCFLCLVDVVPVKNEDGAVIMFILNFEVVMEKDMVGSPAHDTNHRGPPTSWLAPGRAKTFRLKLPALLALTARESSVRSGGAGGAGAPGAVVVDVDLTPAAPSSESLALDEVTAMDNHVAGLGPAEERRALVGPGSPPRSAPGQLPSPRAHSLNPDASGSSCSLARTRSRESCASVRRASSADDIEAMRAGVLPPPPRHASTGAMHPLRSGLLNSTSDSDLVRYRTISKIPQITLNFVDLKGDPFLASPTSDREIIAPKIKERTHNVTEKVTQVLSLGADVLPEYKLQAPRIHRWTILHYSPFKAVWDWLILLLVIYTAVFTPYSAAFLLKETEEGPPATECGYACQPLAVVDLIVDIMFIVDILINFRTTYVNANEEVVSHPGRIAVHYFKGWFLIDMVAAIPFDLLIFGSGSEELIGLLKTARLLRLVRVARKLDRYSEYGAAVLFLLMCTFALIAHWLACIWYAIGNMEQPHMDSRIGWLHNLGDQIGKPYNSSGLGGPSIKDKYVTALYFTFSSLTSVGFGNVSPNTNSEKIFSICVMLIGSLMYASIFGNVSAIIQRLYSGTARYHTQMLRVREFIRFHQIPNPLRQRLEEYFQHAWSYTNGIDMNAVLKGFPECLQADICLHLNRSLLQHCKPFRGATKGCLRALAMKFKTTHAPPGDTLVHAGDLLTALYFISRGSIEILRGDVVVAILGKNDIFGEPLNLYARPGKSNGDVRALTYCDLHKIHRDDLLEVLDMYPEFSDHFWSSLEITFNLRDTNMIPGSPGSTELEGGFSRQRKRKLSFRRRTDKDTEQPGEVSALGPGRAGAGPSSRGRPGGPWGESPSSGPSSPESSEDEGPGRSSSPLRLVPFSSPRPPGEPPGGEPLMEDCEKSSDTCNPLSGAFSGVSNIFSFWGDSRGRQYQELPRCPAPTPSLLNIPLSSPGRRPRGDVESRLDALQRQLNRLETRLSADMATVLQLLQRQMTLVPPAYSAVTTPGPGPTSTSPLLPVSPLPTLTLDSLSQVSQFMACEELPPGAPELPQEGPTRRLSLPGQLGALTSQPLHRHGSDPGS
row,Structure (SMILES),"hERG current change (%, negative = inhibition) at 1uM"
1,CC12CN(C(=O)c3ccccc3)C3(C#N)CC1CCC23C (centres unmarked),7.43%
2,COc1ccc(C)cc1Cn1c(S(C)(=O)=O)nc2ccccc21,9.02%
3,COc1cc(-c2nc(-c3ccccc3)c(-c3cc([N+](=O)[O-])ccc3C)[nH]2)cc(OC)c1OC,9.09%
4,Nc1ccc(-c2c3ccccc3nc3ccccc23)cc1,13.4%
5,CS(=O)(=O)N(Cc1ccc(Cl)cc1)c1ccc(C(=O)NCC2CCCO2)cc1 (centres unmarked),-3.84%
6,CCN(CC)C(=O)/C(=C\c1ccncc1)NC(=O)c1ccccc1,1.54%
7,CC(=O)c1sc(-c2ccc(Cl)cc2)nc1C,9.05%
8,COc1ccc(NC2=CC(c3ccccc3)N(c3ccc(OC)cc3)C2=O)cc1 (centres unmarked),11.9%
9,Cc1ccccc1OCCC(=O)N1CCN(S(=O)(=O)c2ccc(F)cc2)CC1,9.86%
10,C=CCn1c(CCc2ccc(OC(C)C)cc2)n[nH]c1=S,11.1%
11,CCOC(=O)[C@H]1[C@H]2COc3ccc(C)cc3[C@@H]2N2C(=O)c3cc(F)ccc3NC(=O)[C@@]12C,8.13%
12,Cc1nc2c(C(=O)NCCc3ccccc3Cl)c[nH]n2c(=O)c1Cl,2.12%
13,Cc1cc(C(=O)COC(=O)c2ccc(Br)o2)c(C)n1C,18.4%
14,COc1ccc(NC(=O)CSc2nc3ncccc3[nH]2)cc1OC,8.67%
15,COc1ccc(C)cc1NC(=O)CSc1nnc(-c2cc(C)[nH]n2)n1N,23.6%
16,COc1ccc2c(CC(=O)OCC(=O)N3CCc4ccccc43)coc2c1,5.6%
17,CCOC(=O)c1[nH]c2cc3c(cc2c1NC(=O)CN1CC(C)CC(C)C1)OCO3 (centres unmarked),8.79%
18,CC(c1ccccc1)c1nnc(NC(=O)Nc2ccccc2F)s1 (centres unmarked),11.8%
19,O=C(/C=C/c1ccccc1)c1ccc2c(c1)OCCCCO2,15.4%

row,Structure (SMILES),"hERG current change (%, negative = inhibition) at 1uM"
1,CCOC(=O)c1ccccc1NC(=O)C1CSC2(C)CCC(=O)N12 (centres unmarked),7.69%
2,COc1cc(NC(=S)NC(=O)c2ccc(C)cc2C)ccc1NC(=O)c1cccs1,9.74%
3,Nc1c(Cl)cc(C2=NCCn3nc4ccccc4c32)cc1Cl,13.6%
4,CCC(CC)NCc1ccc(OC)cc1OC,-4.09%
5,COc1ccccc1C(=O)N1CCN=C1SCc1cccnc1,10.7%
6,CN(CC(=O)Nc1cccc(F)c1)C(=O)CC1CCCCC1,4.32%
7,CCOc1ccc(-c2nnc(SCC(=O)NC3CC3)o2)cc1,6.07%
8,COc1cccc(N2CCN(S(=O)(=O)c3cccc4cccnc34)CC2)c1,9.44%
9,CCc1cc(=O)oc2c(C)c(OCC(=O)N3CCC[C@@H]3C(=O)O)ccc12,13.9%
10,CCC(=O)c1ccc(OCC(O)Cn2cnc3ccccc32)cc1 (centres unmarked),-5.18%
11,Cc1ccccc1OCc1ccc(C(=O)N2CC(C)OC(C)C2)o1 (centres unmarked),11.4%
12,COc1ccc(Cc2nc(C(=O)Nc3ccc(Cl)cc3)cs2)cc1,3.02%
13,COc1cc(OC)cc(C(=O)N2CCCC(c3nc(-c4ccc(C)o4)no3)C2)c1 (centres unmarked),16.3%
14,FC(F)(F)c1cc(-c2ccco2)nc(-n2nnc3ccccc32)n1,-4.57%
15,C=CCNc1ncnc2c1ncn2C1OC(CO)C(O)C1O (centres unmarked),18.5%
16,NC(=O)CCCn1c(C(=O)c2cc(Cl)c(N)c(Cl)c2)c2ccc([N+](=O)[O-])cc2[n+]1[O-],3.66%
17,CC(=O)n1cc([C@@H]2C=C(C(=O)Nc3ccccc3)O[C@H](OCCCCO)C2)c2ccccc21,-2.82%
18,COc1cc(-c2csc(C)n2)ccc1O,12.6%
19,O=C(NNC(=O)C1C2C=CC(C2)C1C(=O)O)c1cc(Cl)ccc1O (centres unmarked),14.2%

row,Structure (SMILES),"hERG current change (%, negative = inhibition) at 1uM"
1,COc1ccc(NC(=O)CN2C(=O)C(c3ccccc3)=NC23CCCCCC3)cc1OC,3.61%
2,Nc1ccccc1N=Cc1ccc(-c2cccc(Cl)c2)o1,10.1%
3,COc1ccccc1N1CCN(C(=O)Oc2ccccc2)CC1,6.96%
4,COc1ccc([N+](=O)[O-])cc1NC(=O)C(C)OC(=O)c1ccccc1C(=O)c1ccc(Cl)cc1 (centres unmarked),9.96%
5,O=C(COc1ccccc1)NNC(=O)c1ccc(Cl)cc1,7.74%
6,CC(=O)n1cc(/C=C2/N=C(c3ccccc3)OC2=O)c2ccccc21,9.73%
7,COc1ccc(O)c(C(=O)c2cnc3c(c2)CN(C)C(=O)N3)c1,11.3%
8,CC1(C(=O)OCC(=O)NNC(=O)COc2ccc(Cl)cc2)CC1(Cl)Cl (centres unmarked),8.15%
9,NS(=O)(=O)c1ccc(CCNC(=O)CSc2ccc(Cl)cc2)cc1,5.9%
10,CC(C)Cn1c(N)c(C(=O)COC(=O)c2ccc(F)cc2)c(=O)n(C)c1=O,2.75%
11,Cc1cccc(C)c1NC(=O)c1ccc([N+](=O)[O-])s1,5.27%
12,O=C(NC1CCCc2ccccc21)c1cc(S(=O)(=O)N2CCOCC2)ccc1F (centres unmarked),5.39%
13,Cn1nc(Cc2n[nH]c(=S)n2C)c2ccccc2c1=O,13.9%
14,COc1ccc(-c2c([C@H]3[C@H]4C=CC[C@@H](C)[C@@H]4C(=O)N3Cc3ccccc3)ccc3ccccc23)cc1,18.3%
15,COc1ccc(CN2CCN(C(=O)COc3ccc4ccccc4c3)CC2)c(OC)c1,9.87%
16,COC(=O)CN(c1cc([N+](=O)[O-])ccc1OC)S(C)(=O)=O,11.9%
17,Cc1ccccc1OC(C)C(=O)Nc1ccc2c(c1)OCCO2 (centres unmarked),-9.77%
18,CC(=O)c1ccc(N2CCN(C(=O)[C@H](C)NC(=O)c3ccccc3Cl)CC2)cc1,4.45%

# — PMC4336329 (PLoS ONE, 2015)
